Reference: PubChem BioAssay AID485341 (National Center for Advancing Translational Sciences (NCATS), 2010)
The campaign covered roughly 330,000 compounds. About 1,700 (0.52%) were called active. Inconclusive means that the source gave no clear call. Such entries were picked first, then a sample of the others. The call rests on the fitted dose curve; in most records, active means well fitted inhibition curve with a large enough effect; inconclusive means small, poorly fitted or top-dose-only effect; inactive means no such curve, though single readings can be large or run the other way. A potency beside an inconclusive call is a rough fit, not a confirmed value.

These compounds were tested against Beta-lactamase (Escherichia coli (strain K12)) (UniProt P00811) (assay: qHTS Inhibitors of AmpC Beta-Lactamase (assay without detergent)). Details: AmpC nitrocefin hydrolysis, absorbance 480 nm, 0.0001% Triton; activity change, negative = inhibition: at 57.1 µM (top of the series) unless noted.
Chain of UniProt P00811 (P00811 whole entry, looked up): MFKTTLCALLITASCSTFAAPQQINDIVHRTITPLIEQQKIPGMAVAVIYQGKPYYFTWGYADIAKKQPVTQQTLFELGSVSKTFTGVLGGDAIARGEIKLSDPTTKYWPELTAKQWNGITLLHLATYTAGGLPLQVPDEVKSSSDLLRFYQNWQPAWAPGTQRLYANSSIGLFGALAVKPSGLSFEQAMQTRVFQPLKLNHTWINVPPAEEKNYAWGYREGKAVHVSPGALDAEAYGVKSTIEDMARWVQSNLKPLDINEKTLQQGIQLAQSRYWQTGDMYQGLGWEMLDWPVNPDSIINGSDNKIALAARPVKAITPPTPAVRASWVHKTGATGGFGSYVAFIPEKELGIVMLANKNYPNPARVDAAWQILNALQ
How it was run: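 AmpC (5.3 nM in the dispensed reagent) in 20 mM phosphate pH 7.0 with 0.01% (detergent screen) or 0.0001% Triton X-100 was preincubated with compounds for 15 min at room temperature. Nitrocefin was then added from an 800 uM solution, and hydrolysis was followed at 480 nm.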
Further: nearly all actives have a fitted effect of over 20% in size.
Potency means the concentration at half of the fitted maximal effect; tags describe the fitted curve by direction and shape.
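Wherever activity change, negative = inhibition is given: plate controls were no compound for no effect and no enzyme for full effect.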

Row | SMILES | Potency | activity change, negative = inhibition
1 | O=[N+]([O-])c1cc(-c2ccc(/C=N\n3cnnc3)o2)cc([N+](=O)[O-])c1 | inconclusive: 31.6 µM [inhibitor, single point] | –
2 | O=C(OCc1nc2ccsc2c(=O)[nH]1)c1cccc(S(=O)(=O)N2CCOCC2)c1 | inconclusive: 39.8 µM [inhibitor, single point] | –
3 | COC(=O)[C@@H]1C[C@H]1[C@@H](NC(=O)c1ccccc1)c1ccccc1 | – | inactive: -9.62%
4 | Cc1cc(C(=O)COC(=O)c2ccc3c(c2)OCO3)c(C)n1CC1CCCO1 (centres undefined) | – | inactive: 51.3%
5 | COc1ccc(NC(=O)n2ncc3cc(Cl)ccc32)cc1OC | – | inactive: 20.6%
6 | O=C(c1cnn(-c2nc3ccccc3s2)c1)c1ccccc1O | – | inactive: -15%
7 | Cc1cc(NS(=O)(=O)c2ccc(NC(=O)c3oc4ccccc4c3C)cc2)no1 | inconclusive: 25.1 µM [inhibitor, partial curve] | –
8 | Cn1nnc2cc(NC(=O)NCc3ccc4c(c3)OCO4)ccc21 | – | inactive: -6.6%
9 | O=C1c2[nH]nc(-c3ccccc3O)c2C(c2cccc(Cl)c2)N1CC1CCCO1 (centres undefined) | inconclusive: 2.51 µM [inhibitor, partial curve] | –
10 | N#Cc1nc(-c2cccc3ccccc23)oc1NCC#CCOC(=O)c1cccs1 | inconclusive: 12.6 µM [inhibitor, partial curve] | –
11 | Cn1c2c(c(=O)[nH]c1=O)C(c1ccc(O)cc1)C1=C(N2)c2ccccc2C1=O (centres undefined) | active: 17.8 µM | –
12 | Cc1nc2ccc(Cc3ccc4nc(C)[nH]c4c3)cc2[nH]1 | – | inactive: -28.7%
13 | CC1CCC(NC(=O)C2CCN(c3nc4ccccc4s3)CC2)CC1 (centres undefined) | – | inactive: 2.76%
14 | O=C1CC(N2CCN(c3nc4ccccc4s3)CC2)C(=O)N1Cc1cccs1 (centres undefined) | – | inactive: 144%
15 | Cc1nn(Cc2ccc([N+](=O)[O-])cc2)c(=O)n1-c1c(F)cccc1F | inconclusive: 6.31 µM [inhibitor, single point] | –
16 | Cc1ccc(NS(=O)(=O)c2cc(NC(=O)c3ccc4c(c3)NC(=O)CS4)ccc2Cl)c(C)c1 | – | inactive: -43.2%
17 | O=C(NCCc1ccccc1)c1ccc2nc(-c3ccco3)c(-c3ccco3)nc2c1 | active: 15.8 µM | –
18 | O=C(Nc1ccc(Br)c(Cl)c1)C1CC1 | active: 2.24 µM | –
19 | COc1ccc(N2CCN(C(CNC(=O)c3ccco3)c3ccco3)CC2)cc1 (centres undefined) | inconclusive: 39.8 µM [inhibitor, single point] | –
20 | CC(=O)c1cccc(NC(=S)N2CCN(S(=O)(=O)c3ccccc3)CC2)c1 | – | inactive: -26.3%
21 | COc1ccc(C(C(=O)NC2CCCCC2)N(C(=O)Cc2c[nH]c3ccccc23)c2ccccc2C)cc1OC (centres undefined) | – | inactive: 30.1%
22 | Cc1ccc(CSc2nnc3c(n2)OC2(Nc4ccccc4-3)C(=O)Nc3ccc(F)cc32)cc1 (centres undefined) | inconclusive: 39.8 µM [inhibitor, single point] | –
23 | O=C1CCC/C(=N/NC(=O)c2cc(NS(=O)(=O)c3cccs3)cc(NS(=O)(=O)c3cccs3)c2)C1 | active: 11.2 µM | –
24 | COc1ccc(S(=O)(=O)N2CCC(C(=O)N(CC(C)C)C3CCS(=O)(=O)C3)CC2)cc1OC (centres undefined) | inconclusive: 28.2 µM [inhibitor, single point] | –
25 | N#Cc1cc(-c2ccccc2)cn(Cc2c(Cl)cccc2Cl)c1=O | inconclusive: 5.62 µM [inhibitor, single point] | –

Row | SMILES | Potency | activity change, negative = inhibition
26 | COC(=O)c1ccc(C(=O)NC(=S)Nc2nc3c(s2)CC(C)CC3)cc1 (centres undefined) | – | inactive: -21.6%
27 | O=C(CSc1ncnc2c1cnn2-c1ccccc1)NC1CCCC1 | inconclusive: 35.5 µM [inhibitor, single point] | –
28 | N#Cc1ccc2c(c1)C[C@]1(c3ccsc3)Oc3c(c(=O)oc4ccc(F)cc34)C2O1 | inconclusive: 1.78 µM [inhibitor, partial curve, poor fit] | –
29 | COc1ccc(OCC(=O)NC(=S)Nc2ccc(S(=O)(=O)Nc3cc(OC)nc(OC)n3)cc2)cc1 | inconclusive: 17.8 µM [inhibitor, partial curve] | –
30 | COC(=O)CS(=O)(=O)c1ccc2c(c1)CC(=O)N2 | active: 0.141 µM | –
31 | O=C(NCCc1ccccc1)C1CCN(S(=O)(=O)N2CCC3(CC2)OCCO3)CC1 | active: 0.562 µM | –
32 | COc1ccc(-c2nnc(SCC#CCO)o2)cc1OC | inconclusive: 1.12 µM [inhibitor, partial curve, poor fit] | –
33 | CCN(CC)c1ccc(C=C(c2nnnn2-c2ccccc2)c2nnnn2-c2ccccc2)cc1 | inconclusive: 2.24 µM [inhibitor, partial curve] | –
34 | Cc1ccc(C2=NC(C(F)(F)F)(C(F)(F)F)c3c(n(-c4ccc(F)cc4)c(=O)[nH]c3=O)N2)cc1 | – | inactive: 0.503%
35 | Cc1ccc(NC(=O)CN(C)S(=O)(=O)c2cccc3nsnc23)cc1 | active: 0.158 µM | –
36 | NC(=O)C1CCN(C(=O)CC2(CC(=O)O)CCCC2)CC1 | – | inactive: -34.6%
37 | COCCn1ccc(O)c(Cc2ccc(Cl)cc2)c1=O | inconclusive: 6.31 µM [inhibitor, single point] | –
38 | CCCCNC(=O)/C=C/c1cccs1 | – | inactive: -10.9%
39 | CCOC(=O)C1CCN(C(=O)c2c(-c3c(Cl)cccc3Cl)noc2C)CC1 | – | inactive: 9.31%
40 | CCCc1cc(Nc2cccc(OC)c2)n2ncnc2n1 | inconclusive: 1.12 µM [inhibitor, partial curve, poor fit] | –
41 | COc1cccc(NC(=O)c2ccc(-c3ccccc3[N+](=O)[O-])o2)c1 | inconclusive: 14.1 µM [inhibitor, partial curve, poor fit] | –
42 | CC1CCCN(S(=O)(=O)c2ccc3c(c2)n(C)c(=O)c(=O)n3C)C1 (centres undefined) | – | inactive: 4.22%
43 | CCCn1c(=O)c(C(=O)NNS(=O)(=O)c2ccc(C)cc2)c(O)c2ccccc21 | inconclusive: 2 µM [inhibitor, full curve, poor fit] | –
44 | Nc1c(NCCN2CCCCC2)c2ccccc2oc1=O | – | inactive: -6.99%
45 | O=C(NNS(=O)(=O)c1cccc(Cl)c1)c1cc(-c2ccc(F)cc2)nc2ccccc12 | active: 12.6 µM | –
46 | C=CCn1c(=S)[nH]c2scc(-c3ccco3)c2c1=O | inconclusive: 35.5 µM [inhibitor, single point] | –
47 | CCN(CC)c1ccc(C(=O)OCC(=O)Nc2ccc3[nH]c(=O)[nH]c3c2)cc1 | inconclusive: 28.2 µM [inhibitor, single point] | –
48 | NC(=O)Cn1c(=O)oc2ccccc21 | inconclusive: 5.62 µM [inhibitor, single point] | –
49 | COc1c(OC(C)=O)ccc(/C=C/c2ccc3ccccc3n2)c1[N+](=O)[O-] | inconclusive: 5.62 µM [inhibitor, single point] | –
50 | Cc1ccc(NC(=O)c2cnc(SCC(=O)NCC3CCCO3)n(C)c2=O)cc1 (centres undefined) | inconclusive: 35.5 µM [inhibitor, single point] | –

Row | SMILES | Potency | activity change, negative = inhibition
51 | Cc1ccc(C)c(OCCCCCn2ccnc2)c1 | inconclusive: 5.62 µM [inhibitor, single point] | –
52 | CN(CC(=O)Nc1ccc(F)c(F)c1)S(=O)(=O)c1cccc2cccnc12 | – | inactive: -29.7%
53 | CN1c2ccccc2C(O)=C(C(=S)Nc2ccc(F)c(Cl)c2)S1(=O)=O | inconclusive: 6.31 µM [inhibitor, single point] | –
54 | CCc1ccc2c(c1)cc(CN(C(=S)Nc1ccccc1Cl)C1CC1)c1nnnn12 | inconclusive: 4.47 µM [inhibitor, single point] | –
55 | O=C(CCN1CCCCO1)N1CCCC(Nc2cccc(F)c2)C1 (centres undefined) | – | inactive: -12.8%
56 | CN1CCN(c2nc(N3CCN(CCO)CC3)nc3ccccc23)CC1 | – | inactive: -8.8%
57 | O=C(OCN1C(=O)c2ccccc2C1=O)C1CCCCC1 | – | inactive: -1.25%
58 | O=C(Nc1ccc(Br)cc1)c1cnc[nH]1 | – | inactive: -15.9%
59 | CC1CCN(S(=O)(=O)c2ccc3c(c2)oc(=O)n3CC(=O)NCc2ccc3c(c2)OCO3)CC1 | inconclusive: 2.51 µM [inhibitor, full curve, poor fit] | –
60 | O=C(CN1C(=O)COc2ccccc21)Nc1ccc(N2CCOCC2)cc1 | – | inactive: -0.0508%
61 | O=C(Nc1ccc2c(c1)Cc1ccccc1-2)c1ccncc1 | – | inactive: -32.2%
62 | Nc1nc(N2CCN(C/C=C/c3ccccc3)CC2)nc2ccccc12 | – | inactive: 9.24%
63 | COc1cc(/C=C(/C#N)c2nc3ccccc3c(=O)[nH]2)ccc1O | active: 28.2 µM | –
64 | COc1cccc(-c2nc(-c3ccc4c(c3)-c3ccccc3S4(=O)=O)c(-c3ccccc3)[nH]2)c1OC | inconclusive: 3.98 µM [inhibitor, single point] | –
65 | CS(=O)(=O)c1ccc(Cl)c(NC(=O)CSc2n[nH]c(N)n2)c1 | inconclusive: 39.8 µM [inhibitor, single point] | –
66 | CCC(C)n1c(O)c(/C=N/Nc2ccccc2)c(=O)[nH]c1=S (centres undefined) | inconclusive: 39.8 µM [inhibitor, single point] | –
67 | COc1ccc(-n2c(=O)[nH]cc(C(=O)Nc3ccccc3)c2=O)cc1 | inconclusive: 0.316 µM [inhibitor, full curve, poor fit] | –
68 | Cc1ccc(S(=O)(=O)NC(=NC2CCCCC2)c2ccc(F)cc2)cc1 | – | inactive: -10.6%
69 | Cc1cc(C)nc(N2CCC(C(=O)Nc3ccc(Oc4ccccc4)cc3)CC2)n1 | inconclusive: 0.158 µM [inhibitor, full curve, poor fit] | –
70 | CC(C)c1ccc(NC(=O)CSc2nc(=O)[nH]c3c2CCCC3)cc1 | active: 35.5 µM | –
71 | O=C(CSc1nc2ccccc2nc1N1CCOCC1)N1CCN(c2ccccc2)CC1 | – | inactive: 109%
72 | C/C(N)=C(/C#N)C(=O)CSc1nc2ccccc2c(=O)n1Cc1ccc(C)cc1 | inconclusive: 20 µM [inhibitor, single point] | –
73 | COc1cc(/C=N/NS(=O)(=O)c2ccc(C)cc2)ccc1OCc1cccc(C(=O)O)c1 | – | inactive: -27.8%
74 | O=C(c1cc(-c2ccccc2O)on1)N1CCc2ccccc2C1 | – | inactive: -34.4%
